Counter-ions that a name gives are not always drawn. Some of the results follow. Many values rest on one well or one pass, so single values are uncertain.
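Also: viability estimated indirectly by image-based GFP quantification with live-cell imaging of the constitutively GFP-expressing human colorectal cancer line, no immune cells added.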

This assay relates to HCT116-GFP. As to the kind of experiment: HCT116-GFP viability (GFP intensity) relative to untreated control, monoculture; higher = less cancer cell killing. As to conditions: culture: HCT116-GFP monoculture; 10 µM; 72 h.
With `CCCCCN(CCCCC)C(=O)C(CCC(=O)O)NC(=O)c1ccc(Cl)c(Cl)c1` (stereo unspecified) [Lorglumide sodium salt], the HCT116-GFP viability is 100%.
`O=C(CCCCCCC(=O)Nc1ccccc1)NO` [Vorinostat]: the HCT116-GFP viability turned out to be 4.57%.
The result for `CC[C@H]1OC(=O)C[C@@H](O)[C@H](C)[C@@H](O[C@@H]2O[C@H](C)[C@@H](O[C@H]3C[C@@](C)(O)[C@@H](O)[C@H](C)O3)[C@H](N(C)C)[C@H]2O)[C@@H](CC=O)C[C@@H](C)C(=O)/C=C/C(C)=C/[C@@H]1CO[C@@H]1O[C@H](C)[C@@H](O)[C@@H](OC)[C@H]1OC` [Tylosin] reads 86.4%; that for `C[C@]12C[C@H](O)[C@H]3[C@@H](CCC4=CC(=O)CC[C@@]43C)[C@@H]1CC[C@@H]2C(=O)CO` [Corticosterone], 82.9%.
As for `COC(=O)C1=C(C)NC(C)=C(C(=O)OC2CCCN(Cc3ccccc3)C2)C1c1cccc([N+](=O)[O-])c1` (stereo unspecified) [Benidipine hydrochloride], the figure is 62.9%; as for `CC1(C)O[C@@H]2C[C@H]3[C@@H]4CCC5=CC(=O)C=C[C@]5(C)[C@H]4[C@@H](O)C[C@]3(C)[C@]2(C(=O)CO)O1` [Desonide], 121%; as for `CCN(CC)C(=S)SSC(=S)N(CC)CC` [Disulfiram], 66.5%.
In the case of `C/C(=C(\CCOP(=O)(O)O)SC(=O)c1ccccc1)N(C=O)Cc1cnc(C)nc1N` [Benfotiamine], the HCT116-GFP viability stood at 103%.
In the case of `Nc1c2c(nc3ccccc13)CCCC2` [Tacrine hydrochloride], the HCT116-GFP viability amounted to 114%.
For `O=C1CN(/N=C/c2ccc([N+](=O)[O-])o2)C(=O)N1` [Nitrofurantoin], the HCT116-GFP viability turned out to be 87.2%.
As to `Cc1ccccc1OCC(O)CO` (stereo unspecified) [Mephenesin], the HCT116-GFP viability came to 94.7%.
As for `C[C@H](N)[C@H](O)c1cccc(O)c1` [Metaraminol bitartrate], the figure is 98.7%.
In the case of `CCN(CC)CCOC(=O)C(Cc1cccc2ccccc12)CC1CCCO1` (stereo unspecified) [Nafronyl oxalate], the HCT116-GFP viability was 102%.
As for `O=C1CN(/N=C/c2ccc(-c3ccc([N+](=O)[O-])cc3)o2)C(=O)N1` [Dantrolene sodium salt], the HCT116-GFP viability came out at 76.9%.
For `CCOC(=O)n1ccn(C)c1=S` [Carbimazole], the HCT116-GFP viability turned out to be 94.4%.
Regarding `CC1(C)S[C@@H]2[C@H](NC(=O)[C@H](C(=O)O)c3ccsc3)C(=O)N2[C@H]1C(=O)O` [Ticarcillin sodium], the HCT116-GFP viability amounted to 90.7%.
For `CN[C@@H]1[C@@H](O)[C@@H](O[C@@H]2[C@@H](O)[C@H](O[C@H]3OC(CN)=CC[C@H]3N)[C@@H](N)C[C@H]2N)OC[C@]1(C)O` [Sisomicin sulfate], the HCT116-GFP viability came to 92%.
With `Cc1cc(NS(=O)(=O)c2ccc(N)cc2)no1` [Sulfamethoxazole], the HCT116-GFP viability was determined as 101%.
`NCCCC(O)(P(=O)(O)O)P(=O)(O)O` [Alendronate sodium]: the HCT116-GFP viability worked out at 98.6%.
`CNC[C@H](O)[C@@H](O)[C@H](O)[C@H](O)CO` [Meglumine]: the HCT116-GFP viability was found to be 77.5%.
As to `Nc1ccc(S(=O)(=O)Nc2cnc3ccccc3n2)cc1` [Sulfaquinoxaline sodium salt], the HCT116-GFP viability worked out at 96.9%.
For the compound `N=C(N)NCc1cccc(I)c1` [Iobenguane sulfate], the HCT116-GFP viability came out at 95%.
As to `C[C@H]1NC(=O)NC1=O` [Methylhydantoin-5-(D)], the HCT116-GFP viability was 93.8%.
For `Cc1ccnc(NS(=O)(=O)c2ccc(N)cc2)n1` [Sulfamerazine], the HCT116-GFP viability turned out to be 89.2%.
For the compound `NC(=O)OCC(COC(N)=O)c1ccccc1` [Felbamate], the HCT116-GFP viability was determined as 97.3%.
Turning to `CC(C)n1c(/C=C/C(O)CC(O)CC(=O)O)c(-c2ccc(F)cc2)c2ccccc21` (stereo unspecified) [Fluvastatin sodium salt], the HCT116-GFP viability stood at 28.8%.
Take `CCCCNc1cc(C(=O)O)cc(S(N)(=O)=O)c1Oc1ccccc1` [Bumetanide]: the HCT116-GFP viability was 112%.
As for `CNC(=O)c1c(I)c(C(=O)NCC(=O)Nc2c(I)c(C(=O)O)c(I)c(C(=O)NCCO)c2I)c(I)c(N(C)C(C)=O)c1I` [Ioxaglic acid], the figure is 87.8%; as for `CC(=O)Oc1ccccc1C(=O)Oc1ccccc1C(=O)O` [Acetylsalicylsalicylic acid], 98%; as for `CCN(CC)CCOC(=O)c1ccc(N)cc1` [Procaine hydrochloride], 99.2%.
In the case of `Cc1c(C)c2c(c(C)c1O)CCC(C)(C(=O)O)O2` (stereo unspecified) [Trolox], the HCT116-GFP viability is 119%.
On to `CC[C@H](C)C(=O)O[C@H]1C[C@@H](C)C=C2C=C[C@H](C)[C@H](CC[C@@H]3C[C@@H](O)CC(=O)O3)[C@H]21` [Lovastatin], for which the HCT116-GFP viability was 95.3%.
Regarding `CC(=O)N[C@@H](CS)C(=O)O` [Acetylcysteine], the HCT116-GFP viability was determined as 84.9%.
In the case of `CC(=O)O[C@H]1C[C@@]2(C)[C@@H](C[C@@H](O)[C@H]3[C@@]4(C)CC[C@@H](O)[C@@H](C)[C@@H]4CC[C@@]32C)/C1=C(\CCC=C(C)C)C(=O)O` [Fusidic acid sodium salt], the HCT116-GFP viability was 92.3%.
For `CN(C)CCn1nnnc1SCC1=C(C(=O)O)N2C(=O)[C@@H](NC(=O)Cc3csc(N)n3)[C@H]2SC1` [Cefotiam hydrochloride], the HCT116-GFP viability turned out to be 94.5%.
`C[C@@H]1C[C@H]2[C@@H]3C[C@H](F)C4=CC(=O)C=C[C@]4(C)[C@@]3(Cl)[C@@H](O)C[C@]2(C)[C@H]1C(=O)COC(=O)C(C)(C)C` [Clocortolone pivalate]: the HCT116-GFP viability came out at 85.3%.
In the case of `OC(c1cc(C(F)(F)F)nc2c(C(F)(F)F)cccc12)C1CCCCN1` (stereo unspecified) [Mefloquine hydrochloride], the HCT116-GFP viability is 17.5%.
As for `CNCCCC12CCC(c3ccccc31)c1ccccc12` [Maprotiline hydrochloride], the figure is 80%; as for `CC1(C)O[C@@H]2C[C@H]3[C@@H]4CCC5=CC(=O)CC[C@]5(C)[C@@]4(F)[C@@H](O)C[C@]3(C)[C@]2(C(=O)CCl)O1` [Halcinonide], 121%.
Regarding `C[C@]12C=CC(=O)C=C1CC[C@H]1[C@@H]3C[C@@H](O)[C@](O)(C(=O)CO)[C@@]3(C)C[C@H](O)[C@@]12F` [Triamcinolone], the HCT116-GFP viability came out at 123%.
Take `CCN(CC)C(=O)/C(C#N)=C/c1cc(O)c(O)c([N+](=O)[O-])c1` [Entacapone]: the HCT116-GFP viability worked out at 105%.
As to `C[C@@H](O)[C@H]1C(=O)N2C(C(=O)O)=C(S[C@@H]3CN[C@H](C(=O)N(C)C)C3)[C@H](C)[C@H]12` [Meropenem], the HCT116-GFP viability came out at 106%.
Consider `CC(=O)O[C@H]1C[C@@H]2CC[C@@H]3[C@H](CC[C@@]4(C)[C@H]3C[C@H]([N+]3(C)CCCCC3)[C@@H]4OC(C)=O)[C@@]2(C)C[C@@H]1N1CCCCC1` [Vecuronium bromide], for which the HCT116-GFP viability came to 96.7%.
As for `CC(C)NC[C@H](O)COc1cccc2ccccc12` [(S)-propranolol hydrochloride], the HCT116-GFP viability was 118%.
As to `CN(C/C=C/c1ccccc1)Cc1cccc2ccccc12` [Naftifine hydrochloride], the HCT116-GFP viability worked out at 84.8%.
`CN1C(=O)OC(C)(C)C1=O` [Trimethadione]: the HCT116-GFP viability worked out at 100%.
As for `CC(=O)CCCCn1c(=O)c2c(ncn2C)n(C)c1=O` [Pentoxifylline], the figure is 88.6%; as for `OCCN1CCN(CCCN2c3ccccc3C=Cc3ccccc32)CC1` [Opipramol dihydrochloride], 98.1%.
Regarding `Cc1onc(-c2c(F)cccc2Cl)c1C(=O)N[C@@H]1C(=O)N2[C@@H]1SC(C)(C)[C@@H]2C(=O)O` [Flucloxacillin sodium], the HCT116-GFP viability was found to be 110%.
The result for `C[C@H](Cc1cc2c(c(C(N)=O)c1)N(CCCO)CC2)NCCOc1ccccc1OCC(F)(F)F` [Silodosin] reads 92.1%; that for `CN(C)CCCSC(=N)N` [Dimaprit dihydrochloride], 97.5%.
The result for `O=C(NCCN1CCOCC1)c1ccc(Cl)cc1` [Moclobemide] reads 95.6%; that for `CCCCCNC(=N)N/N=C/c1c[nH]c2ccc(OC)cc12` [Tegaserod maleate], 0.346%.
Take `NS(=O)(=O)c1cc(Cl)c(Cl)c(S(N)(=O)=O)c1` [Dichlorphenamide]: the HCT116-GFP viability came out at 123%.
For `CCN1CCCC(OC(=O)C(c2ccccc2)c2ccccc2)C1` (stereo unspecified) [Piperidolate hydrochloride], the HCT116-GFP viability was 110%.
For `O=C(O)c1ccccc1OP(=O)(O)O` [Fosfosal], the HCT116-GFP viability came out at 89.3%.
The result for `C/C=C(/C(=C/C)c1ccc(O)cc1)c1ccc(O)cc1` [Dienestrol] reads 103%.
In the case of `Cc1ncc([N+](=O)[O-])n1CC(C)O` (stereo unspecified) [Secnidazole], the HCT116-GFP viability turned out to be 98.7%.
For `COc1ccc2cc([C@H](C)C(=O)O)ccc2c1` [Naproxen], the HCT116-GFP viability was 92.3%.
Take `Nc1cc(N2CCCCC2)nc(N)[n+]1[O-]` [Minoxidil]: the HCT116-GFP viability was 94.2%.
Turning to `CC1(C)S[C@@H]2[C@H](NC(=O)[C@H](N)c3ccccc3)C(=O)N2[C@H]1C(=O)O` [Ampicillin trihydrate], the HCT116-GFP viability was 103%.
On to `O=c1n(CCCN2CCN(c3cccc(Cl)c3)CC2)nc2ccccn12` [Trazodone hydrochloride], for which the HCT116-GFP viability turned out to be 92%.
The result for `NC(=O)c1cnccn1` [Pyrazinamide] reads 102%; that for `Cc1nc2ccccn2c(=O)c1CCN1CCC(C(=O)c2ccc(F)cc2)CC1` [Pirenperone], 106%; that for `CSc1nc2cc(Cl)c(Oc3cccc(Cl)c3Cl)cc2[nH]1` [Triclabendazole], 88.1%.
In the case of `O=C(CCNNC(=O)c1ccncc1)NCc1ccccc1` [Nialamide], the HCT116-GFP viability came out at 98.3%.
The result for `N/C(=N\C(=O)c1nc(Cl)c(N)nc1N)NCc1ccccc1` [Benzamil hydrochloride] reads 88.8%.
In the case of `CCCN(CCC)CCc1cccc2c1CC(=O)N2` [Ropinirole hydrochloride], the HCT116-GFP viability is 95.2%.
The result for `COc1cccc2c1C(=O)c1c(O)c3c(c(O)c1C2=O)C[C@@](O)(C(=O)CO)C[C@@H]3O[C@H]1C[C@H](N)[C@@H](O)[C@H](C)O1` [Epirubicin hydrochloride] reads 5.52%; that for `CC(=O)O[C@H]1C(=O)[C@@]2(C)[C@H]([C@H](OC(=O)c3ccccc3)[C@]3(O)C[C@H](OC(=O)[C@H](O)[C@@H](NC(=O)c4ccccc4)c4ccccc4)C(C)=C1C3(C)C)[C@]1(OC(C)=O)CO[C@@H]1C[C@@H]2O` [Paclitaxel], 21.3%.
For `CC(N)CCCC(C)(C)O` (stereo unspecified) [Heptaminol hydrochloride], the HCT116-GFP viability is 113%.

Source of the values: the supplement of paper PMC9938546.
